We go through 1 molecule from paper doi:10.1101/2023.09.28.559893 (bioRxiv, 2023).

The target of the test is T1, TRIAD3A_UR (UR fragment: amino acid 260-750) (human, UniProt Q9NWF9-2 260-750).
T1 sequence: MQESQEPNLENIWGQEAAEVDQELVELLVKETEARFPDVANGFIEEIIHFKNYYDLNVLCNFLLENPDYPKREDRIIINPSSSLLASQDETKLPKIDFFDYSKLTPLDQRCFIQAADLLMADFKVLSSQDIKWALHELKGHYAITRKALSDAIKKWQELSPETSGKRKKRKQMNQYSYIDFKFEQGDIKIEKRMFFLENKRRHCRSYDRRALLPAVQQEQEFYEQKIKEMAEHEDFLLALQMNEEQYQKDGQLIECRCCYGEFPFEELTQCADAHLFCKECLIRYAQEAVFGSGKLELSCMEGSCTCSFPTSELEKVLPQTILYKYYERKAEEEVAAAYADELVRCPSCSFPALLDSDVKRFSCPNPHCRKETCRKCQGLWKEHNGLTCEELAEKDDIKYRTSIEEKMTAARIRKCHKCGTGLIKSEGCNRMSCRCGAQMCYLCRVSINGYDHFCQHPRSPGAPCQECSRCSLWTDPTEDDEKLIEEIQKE
The experiment in a line: pull-down.

B1: recombinant human tau 0N4R (natural protein)
chain: not shown
As for B1, the binding result is reported as “binds”.
